The other results are listed elsewhere or left out. Most values come without repeats; read them as rough.

Consider 35 molecules from the supplement of paper PMC11283458.

Test [1] concerns Mef2d microexon dual Nano/Firefly luciferase splicing reporter in Neuro-2a cells. Put plainly: B-score of Firefly/Nano luminescence ratio, V1 Mef2d microexon reporter (B-score (plate-normalised)); higher = more Mef2d microexon inclusion. As to conditions: 24 h.
The test system is the same in test [2]. Put plainly: B-score of Nano/Firefly luminescence ratio, V2 Mef2d microexon reporter (B-score (plate-normalised)); higher = more Mef2d microexon inclusion. As to conditions: 24 h.
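For B-score of Nano/Firefly luminescence ratio, V2 Mef2d microexon reporter in this document: compounds at 4 µM (PKI library 0.5 µM) on Dox-inducible N2A Flp-In cells with PEST-tagged luciferases, 384-well plates, B-score from per-plate median-polish residual over median absolute residual.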

For `CC(C)(C)c1ccc(-c2nnc(-c3ccccc3NC(=O)C=CC(=O)O)o2)cc1` (4 µM), the B-score in test [1] worked out at 4.35; in test [2] it was 2.4.

For `N#Cc1sc(SCc2ccccc2)c2c1CC(c1ccccc1)CC2=O` (stereo not given) (4 µM), the B-score in test [1] was -1.49; in test [2], -9.21.

`COc1ccc2oc(C(=O)N(C)Cc3cnn(Cc4ccccc4)c3)c(C)c2c1` (4 µM): the figures for the B-score in test [1] and in test [2] were -2.43 and -5.74, respectively.

Take `COc1ccccc1/C=C1\C(=O)NC(=O)c2ccccc21` (4 µM): the values for the B-score in test [1] and in test [2] were -3.33 and -5.5, respectively.

Take `COc1ccc(C)cc1Cn1c(-c2nonc2N)nc2ccccc21` (4 µM): the B-score was -7.55 in test [1] and -8.98 in test [2].

As to `CN(C)C(=O)n1nnnc1Cc1ccc(-c2ccccc2)cc1` (4 µM), the values for the B-score in test [1] and in test [2] were -4.21 and -10.6, respectively.

On to `COc1cc(OC)c(C(=O)CCCCN2CCC3(CC2)NC(=O)NC3=O)cc1NS(=O)(=O)c1ccc(C(F)(F)F)cc1` (4 µM), for which the B-score in test [1] was determined as 12.9; in test [2] it was 3.06.

Consider `O=C1C=CC(=O)N1c1ccc(Cl)c(Cl)c1` (4 µM), for which the values for the B-score in test [1] and in test [2] were 3.37 and 4.87, respectively.

Turning to `COc1cc(Br)c(-c2cc3cc(Cl)ccc3oc2=O)cc1OC` (4 µM), the B-score is -9.92 in test [1] and -4.82 in test [2].

For `Cc1cccc(N2CC(C(=O)Nc3ccc(Cl)cn3)CC2=O)c1C` (stereo not given) (4 µM), the B-score is -4.77 in test [1] and -10.8 in test [2].

As to `O=C(Nc1ccccc1)ON=C1CC2CCCC(C1)N2Cc1cccs1` (4 µM), the B-score is 11.4 in test [1] and 4.7 in test [2].

Turning to `CC(=O)Oc1cccc2c1C(=O)C=CC2=O` (4 µM), the B-score in test [1] worked out at 7.59; in test [2], 12.4.

In the case of `CCn1c(=O)cc(OCC(=O)Nc2ccc(Cl)cn2)c2ccccc21` (4 µM), the B-score was -2 in test [1] and -4.6 in test [2].

`CSc1sc(C(=O)Nc2cc(C(F)(F)F)cc(C(F)(F)F)c2)c(-c2ccc(Cl)cc2)c1C#N` (4 µM): the B-score in test [1] was -4.64; in test [2] it was -5.04.

On to `COc1cc(C(=O)ON=C(N)c2ccc3c(c2)OCO3)cc(OC)c1OC` (4 µM), for which the B-score in test [1] stood at 5.7; in test [2], 2.69.

Turning to `CC(C)N(C(=O)c1ccc(-c2ccccc2F)cc1)C(C)C` (4 µM), the B-score turned out to be 0.355 in test [1] and 13.2 in test [2].

With `CNC(=O)c1ccccc1Nc1cc(Nc2ccc(N3CCOCC3)cc2OC)ncc1C(F)(F)F` (0.5 µM), the values for the B-score in test [1] and in test [2] were -3.13 and -3.65, respectively.

Turning to `N#CC(C#N)=C1c2cc([N+](=O)[O-])ccc2-c2c(C(=O)N3CCCCC3)cc([N+](=O)[O-])cc21` (4 µM), the B-score was -1.35 in test [1] and -3.54 in test [2].

For the molecule `N#Cc1c(-c2ccccc2)c(-c2ccccc2)nn(CC(=O)NNC(=S)Nc2ccccc2)c1=O` (4 µM), the B-score in test [1] is -1.14; in test [2] it was -5.53.

With `COc1cc(NC(C)CCCN)c2ncccc2c1` (stereo not given) [Primaquine diphosphate] (4 µM), the B-score worked out at 7.76 in test [1] and 4.24 in test [2].

`COc1cc(C(=O)O/N=C(\N)c2ccc(Br)cc2)cc(OC)c1OC` (4 µM): the B-score in test [1] amounted to 6.77; in test [2], 2.29.

Turning to `CCOc1ccccc1NC(=O)C(NCc1cn2ccccc2n1)c1ccccc1` (stereo not given) (4 µM), the B-score in test [1] was -6.89; in test [2], -1.31.

As for `N#Cc1sccc1N(S(=O)(=O)c1cc(C(F)(F)F)cc(C(F)(F)F)c1)S(=O)(=O)c1cc(C(F)(F)F)cc(C(F)(F)F)c1` (4 µM), the values for the B-score in test [1] and in test [2] were 7.62 and 4.32, respectively.

As to `COc1cccc2c1C(=O)c1c(O)c3c(c(O)c1C2=O)C[C@@](O)(C(=O)CO)C[C@@H]3O[C@H]1C[C@H](N)[C@H](O)[C@H](C)O1` (4 µM), the B-score is -10.1 in test [1] and -16.4 in test [2].

`COC(=O)/C=C1/OC(c2ccc(Cl)cc2)=CC1=O` (4 µM): the B-score in test [1] was -2.06; in test [2], -6.46.

On to `COC(=O)Nc1ccc(-c2nc(N3CCOCC3)c3cnn(C4CCN(C(=O)OC)CC4)c3n2)cc1` (0.5 µM), for which the values for the B-score in test [1] and in test [2] were -5.53 and -4.42, respectively.

In the case of `CCN(CC)C(=S)SSC(=S)N(CC)CC` [Tetraethylthiuram disulfide] (4 µM), the B-score in test [1] worked out at 4.23; in test [2], 86.5.

As to `COc1ccc(NC(=O)c2cc(-c3ccccc3)n(-c3ccccc3)c2C)cc1` (4 µM), the B-score is -5.99 in test [1] and -16 in test [2].

Consider `O=C(Nc1ccc(N2CCOCC2)cc1N1CCOCC1)c1cnn(-c2ccccc2)n1` (4 µM), for which the B-score in test [1] came to 7.05; in test [2], 10.2.

Turning to `CC(=O)OC1(C(=O)/C=C/c2ccccc2)CCCCC1` (4 µM), the B-score in test [1] is -4.5; in test [2] it was -2.63.

As to `CC1=C(c2ccccc2)C(=NOS(=O)(=O)c2ccc(C)cc2)CC1` (4 µM), the figures for the B-score in test [1] and in test [2] were 0.759 and 3.55, respectively.

Consider `O=C(CCCCCN1C(=O)c2cccc3cccc(c23)C1=O)NO` [Scriptaid] (4 µM), for which the B-score in test [1] worked out at 24.4; in test [2], 14.5.

On to `O=C(c1cncn1-c1ccccc1)N1CCN(c2cccc(C(F)(F)F)c2)CC1` (4 µM), for which the B-score in test [1] was -9.31; in test [2], -10.2.

Turning to `O=C(C=c1[nH]c(=O)c(=Cc2ccccc2O)s1)c1cccs1` (4 µM), the B-score is -11.5 in test [1] and -16.6 in test [2].

Regarding `CNC(=O)c1nn(C)c2c1C(C)(C)Cc1cnc(Nc3ccc(N4CCN(C)CC4)cc3)nc1-2` (0.5 µM), the B-score stood at 3.88 in test [1] and 8.15 in test [2].
